Laboratory results reported in the supplement of paper PMC4967469.
pIC50: −log10 of the molar value. Lines with a small IC50 respond at low doses; where the fit passes the top or lowest dose, that dose stands as a limit. For AUC the same curve is integrated over the 256-fold range of doses and scaled to a fraction; the more sensitive the line, the further below 1. Any top dose called inferred is not printed in the source and was worked back from the curve model.

Compound: CCn1cc(-c2ccnc3[nH]c(-c4cccc(CN(C)C)c4)cc23)c(-c2ccc(NC(=O)N(C)C)cc2)n1 [GSK1070916]
Assay: Viability of human cancer cell lines after 72 h of drug (GDSC screen)
Conditions: top dose inferred
Method: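 Human cancer cell lines in 384-well plates, medium with 10% serum, drug for 72 h over a 256-fold dose range (nine 2-fold or five 4-fold steps up to the top dose). Adherent lines were fixed and stained with the nucleic acid dye Syto60, suspension lines read with resazurin; signal relative to control wells, capped at 0 and 100%. One two-parameter sigmoid per drug and line, fitted in a mixed model over all curves with the slope shared within a line.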

Cell Line	AUC	pIC50
NCI-H1838 (lung adenocarcinoma, adherent, top dose 2.56 µM)	0.979	< 5.59
451Lu (melanoma, adherent, top dose 2.56 µM)	0.987	< 5.59
SW837 (large intestine, adherent, top dose 2.56 µM)	0.914	< 5.59
D-392MG (glioma, adherent, top dose 2.56 µM)	0.944	< 5.59
OACM5-1 (oesophagus, semi-adherent, top dose 2.56 µM)	0.675	6.28
CHSA0108 (chondrosarcoma, adherent, top dose 2.56 µM)	0.965	< 5.59
HOP-62 (lung adenocarcinoma, adherent, top dose 2.56 µM)	0.917	< 5.59
SK-MEL-30 (melanoma, adherent, top dose 2.56 µM)	0.946	< 5.59
NCI-H1563 (lung adenocarcinoma, adherent, top dose 2.56 µM)	0.961	< 5.59
UACC-62 (melanoma, adherent, top dose 2.56 µM)	0.983	< 5.59
LU-99A (large cell lung carcinoma, adherent, top dose 2.56 µM)	0.962	< 5.59
MKN28 (stomach, adherent, top dose 2.56 µM)	0.971	< 5.59
EW-1 (Ewing sarcoma, semi-adherent, top dose 2.56 µM)	0.391	7.08
697 (lymphoblastic leukaemia, suspension, top dose 2.56 µM)	0.017	> 8.00
8-MG-BA (glioma, adherent, top dose 2.56 µM)	0.941	< 5.59
OVK-18 (ovary, adherent, top dose 2.56 µM)	0.985	< 5.59
NCI-SNU-5 (stomach, suspension, top dose 2.56 µM)	0.989	< 5.59
EFO-21 (ovary, adherent, top dose 2.56 µM)	0.908	< 5.59
HSC-2 (head and neck, adherent, top dose 2.56 µM)	0.988	< 5.59
SK-UT-1 (soft tissue, adherent, top dose 2.56 µM)	0.987	< 5.59
NCI-H322M (lung adenocarcinoma, suspension, top dose 2.56 µM)	0.956	< 5.59
C32 (melanoma, adherent, top dose 2.56 µM)	0.987	< 5.59
SW780 (bladder, adherent, top dose 2.56 µM)	0.986	< 5.59
MLMA (hairy cell leukaemia, semi-adherent, top dose 2.56 µM)	0.89	< 5.59
MRK-nu-1 (breast, suspension, top dose 2.56 µM)	0.99	< 5.59
NCI-H1975 (lung adenocarcinoma, adherent, top dose 2.56 µM)	0.906	< 5.59
COLO-824 (breast, adherent, top dose 2.56 µM)	0.913	< 5.59

Cell Line	AUC	pIC50
TMK-1 (stomach, adherent, top dose 2.56 µM)	0.986	< 5.59
DJM-1 (skin, adherent, top dose 2.56 µM)	0.981	< 5.59
NCI-H520 (lung squamous cell carcinoma, adherent, top dose 2.56 µM)	0.86	5.65
UACC-257 (melanoma, adherent, top dose 2.56 µM)	0.946	< 5.59
NALM-6 (B-cell leukaemia, suspension, top dose 2.56 µM)	0.046	> 8.00
TE-9 (oesophagus, adherent, top dose 2.56 µM)	0.987	< 5.59
COLO-668 (small cell lung carcinoma, adherent, top dose 2.56 µM)	0.84	5.75
HCC1599 (breast, suspension, top dose 2.56 µM)	0.445	6.95
JIMT-1 (breast, adherent, top dose 2.56 µM)	0.964	< 5.59
SF539 (glioma, adherent, top dose 2.56 µM)	0.945	< 5.59
OE33 (oesophagus, adherent, top dose 2.56 µM)	0.983	< 5.59
RPMI-8866 (chronic myeloid leukaemia, suspension, top dose 2.56 µM)	0.988	< 5.59
RL95-2 (endometrium, adherent, top dose 2.56 µM)	0.986	< 5.59
HSC-4 (head and neck, adherent, top dose 2.56 µM)	0.972	< 5.59
SK-MEL-24 (melanoma, adherent, top dose 2.56 µM)	0.977	< 5.59
Calu-6 (lung adenocarcinoma, adherent, top dose 2.56 µM)	0.974	< 5.59
MZ1-PC (pancreas, adherent, top dose 2.56 µM)	0.69	6.20
BB49-HNC (head and neck, adherent, top dose 2.56 µM)	0.978	< 5.59
MDA-MB-175-VII (breast, adherent, top dose 2.56 µM)	0.987	< 5.59
SK-MM-2 (myeloma, suspension, top dose 2.56 µM)	0.867	5.61
MFE-280 (endometrium, adherent, top dose 2.56 µM)	0.879	< 5.59
SK-N-SH (neuroblastoma, adherent, top dose 2.56 µM)	0.913	< 5.59
RERF-GC-1B (stomach, adherent, top dose 2.56 µM)	0.812	5.80
NUGC-4 (stomach, adherent, top dose 2.56 µM)	0.982	< 5.59
NCI-H1395 (lung adenocarcinoma, adherent, top dose 2.56 µM)	0.98	< 5.59
KYSE-220 (oesophagus, adherent, top dose 2.56 µM)	0.918	< 5.59
UM-UC-3 (bladder, adherent, top dose 2.56 µM)	0.929	< 5.59

Cell Line	AUC	pIC50
GB-1 (glioma, adherent, top dose 2.56 µM)	0.948	< 5.59
HT-3 (cervix, adherent, top dose 2.56 µM)	0.982	< 5.59
IM-95 (stomach, adherent, top dose 2.56 µM)	0.876	< 5.59
NCI-SNU-1 (stomach, suspension, top dose 2.56 µM)	0.916	< 5.59
MFM-223 (breast, adherent, top dose 2.56 µM)	0.829	5.81
NCI-H1155 (large cell lung carcinoma, suspension, top dose 2.56 µM)	0.968	< 5.59
HH (T-cell leukaemia, suspension, top dose 2.56 µM)	0.706	6.12
CCK-81 (large intestine, adherent, top dose 2.56 µM)	0.947	< 5.59
COLO-783 (melanoma, adherent, top dose 2.56 µM)	0.988	< 5.59
SNU-182 (liver, adherent, top dose 10.24 µM)	0.208	7.07
SNU-449 (liver, adherent, top dose 2.56 µM)	0.809	5.83
LN-229 (glioma, adherent, top dose 2.56 µM)	0.983	< 5.59
WSU-DLCL2 (B-cell lymphoma, suspension, top dose 2.56 µM)	0.975	< 5.59
LNZTA3WT4 (glioma, adherent, top dose 2.56 µM)	0.982	< 5.59
769-P (kidney, adherent, top dose 2.56 µM)	0.845	5.68
TUR (B-cell lymphoma, suspension, top dose 2.56 µM)	0.904	< 5.59
IST-SL2 (small cell lung carcinoma, suspension, top dose 2.56 µM)	0.413	7.03
201T (lung adenocarcinoma, adherent, top dose 2.56 µM)	0.929	< 5.59
HCC1395 (breast, adherent, top dose 2.56 µM)	0.962	< 5.59
JVM-3 (lymphoid neoplasm, suspension, top dose 2.56 µM)	0.987	< 5.59
OCUB-M (breast, adherent, top dose 2.56 µM)	0.342	7.20
647-V (bladder, adherent, top dose 2.56 µM)	0.964	< 5.59
HCC1143 (breast, adherent, top dose 2.56 µM)	0.922	< 5.59
Hs633T (fibrosarcoma, adherent, top dose 2.56 µM)	0.969	< 5.59
NH-12 (neuroblastoma, adherent, top dose 2.56 µM)	0.622	6.44
EC-GI-10 (oesophagus, adherent, top dose 2.56 µM)	0.989	< 5.59
